Reference: PubChem BioAssay AID1460 (National Center for Advancing Translational Sciences (NCATS), 2008)
The whole screen tested about 270,000 compounds, of which about 5,800 (2.1%) were called active. Inconclusive means that the source gave no clear call. Such entries were picked first, then a sample of the others. Calls follow the shape of the dose curve; as a rule, active = well fitted inhibition curve with a large enough effect; inconclusive = small, poorly fitted or top-dose-only effect; inactive = flat fitted curve, though single readings scatter. Where the call is inconclusive, the potency comes from a doubtful curve fit.

Each compound was assayed against Microtubule-associated protein tau (Homo sapiens) (UniProt P10636) (assay: qHTS for Inhibitors of Tau Fibril Formation, Thioflavin T Binding). Conditions: recombinant tau K18 P301L, heparin-induced fibrillization, ThT fluorescence; series mostly up to 57.4 µM.
UniProt P10636, sequence (P10636 whole entry, looked up): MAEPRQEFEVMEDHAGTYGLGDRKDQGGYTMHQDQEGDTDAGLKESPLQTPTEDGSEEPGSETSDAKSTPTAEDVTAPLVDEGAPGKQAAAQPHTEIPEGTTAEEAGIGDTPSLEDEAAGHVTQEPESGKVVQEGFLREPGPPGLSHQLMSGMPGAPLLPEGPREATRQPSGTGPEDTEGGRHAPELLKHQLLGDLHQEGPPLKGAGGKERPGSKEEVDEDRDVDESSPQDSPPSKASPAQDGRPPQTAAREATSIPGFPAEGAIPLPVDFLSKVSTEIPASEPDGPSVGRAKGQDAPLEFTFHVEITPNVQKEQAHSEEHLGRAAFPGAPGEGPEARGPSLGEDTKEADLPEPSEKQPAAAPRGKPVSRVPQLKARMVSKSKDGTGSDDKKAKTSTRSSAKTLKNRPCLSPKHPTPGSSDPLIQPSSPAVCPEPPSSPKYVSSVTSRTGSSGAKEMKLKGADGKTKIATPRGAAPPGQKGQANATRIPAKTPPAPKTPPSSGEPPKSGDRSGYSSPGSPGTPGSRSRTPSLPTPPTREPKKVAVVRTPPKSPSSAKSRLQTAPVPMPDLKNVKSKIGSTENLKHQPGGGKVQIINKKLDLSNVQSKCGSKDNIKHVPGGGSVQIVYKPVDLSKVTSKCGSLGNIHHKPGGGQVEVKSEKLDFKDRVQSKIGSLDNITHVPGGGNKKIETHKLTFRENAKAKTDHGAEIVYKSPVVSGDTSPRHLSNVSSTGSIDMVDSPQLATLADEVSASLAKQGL
In short: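 ThT emission at 510 nm, taken 1 hr after adding 30 uM dye, quantifies aggregates formed when 20 uM heparin acts on human tau K18 P301L for 6 hr at 37 C.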
% is scaled to controls: 0 for no effect and ±100 for the full control effect; potency is read from the fitted curve at half-maximal effect; tags tell the direction and shape of the fitted curve.
Also: nearly all actives have a fitted effect of over 55% in size.

Row | Structure (SMILES) | Potency | activity, negative = inhibition
1 | O=C(c1ccco1)N1CCN(c2nc3c(Cl)cccc3s2)CC1 | inconclusive: 1.41 µM [inhibitor, full curve] | –
2 | COc1ccc(OC)c(C(=O)CN2CCN(S(=O)(=O)c3ccc(Br)cc3)CC2)c1 | inactive | –
3 | CC(C)c1ccc(NC(=O)N2CCc3ccccc3C2)cc1 | inconclusive: 20 µM [inhibitor, partial curve, poor fit] | –
4 | Cc1cc(C)n(CCc2nc(-c3ccc(C)o3)cs2)n1 | inconclusive: 15.8 µM [inhibitor, partial curve] | –
5 | c1ccc([C@H]2NCCc3c2[nH]c2ccccc32)cc1 | – | inactive: -7.43% [at 11.5 µM]
6 | CO/N=C(/c1nonc1N)N1CCN(c2ccc([N+](=O)[O-])cc2)CC1 | inconclusive: 2.24 µM [inhibitor, full curve] | –
7 | COc1ccccc1N1CCN(c2nc3ccc(C)cc3n3nnnc23)CC1 | inactive | –
8 | COc1cc(NC(=O)Cn2nc(-c3ccc(C)c(C)c3)ccc2=O)cc(OC)c1 | inconclusive: 39.8 µM [activator, partial curve] | –
9 | O=C(OCc1nnc(-c2ccccc2)o1)c1ccc(S(=O)(=O)NCc2ccco2)cc1 | inconclusive: 28.2 µM [inhibitor, partial curve, poor fit] | –
10 | CCOC(=O)c1c(C)oc2nc(C)nc(NCCc3ccc(SC)cc3)c12 | inconclusive: 7.08 µM [inhibitor, partial curve] | –
11 | COc1ccc(C2=CC(c3cccc(C)c3)n3nnnc3N2)cc1 (stereo not drawn) | inconclusive: 28.2 µM [inhibitor, single point] | –
12 | CCCCCCCCCCCCCCCC(=O)C1=C(O)C(CO)OC1=O (stereo not drawn) | inconclusive: 22.4 µM [inhibitor, partial curve] | –
13 | COc1ccc(C(=O)CCC(=O)Nc2ccc(OC)c(Cl)c2)cc1 | inconclusive: 25.1 µM [inhibitor, single point] | –
14 | CCc1nnc(NC(=O)CSc2nc3c(cc2C#N)CCCC3)s1 | active: 3.16 µM | –
15 | COc1ccc2cc(-c3[nH]ncc3CN3CCCN(c4ccccc4)CC3)ccc2c1 | inconclusive: 17.8 µM [inhibitor, partial curve] | –
16 | CC(=O)c1c(C)[nH]c(C(=O)OCC(=O)Nc2ccc(C)cc2[N+](=O)[O-])c1C | inconclusive: 25.1 µM [inhibitor, single point] | –
17 | COc1cccc(C(=O)Nc2ccc3nc(N4CCC(C)CC4)cc(C)c3c2)c1 | inconclusive: 7.08 µM [inhibitor, partial curve] | –
18 | Cc1[nH][nH]c(=O)c1C(c1c(C)[nH][nH]c1=O)c1cn(Cc2cccc3ccccc23)c2ccccc12 | active: 10 µM | –
19 | CC(C)=CCC/C(C)=C/COc1ccc2ccc(=O)oc2c1 | inconclusive: 12.6 µM [inhibitor, partial curve] | –
20 | CN(C1=C(N2CCOCC2)C(=O)c2ccccc2C1=O)c1ccccc1 | inconclusive: 25.1 µM [inhibitor, partial curve] | –
21 | Cc1ccc(/C=C/C(=O)Nc2sc3c(c2C#N)CCCC3)o1 | inactive | –
22 | Cc1nn2c(=O)cc(COC(=O)c3cccc(NC(=O)c4ccc(C(C)(C)C)cc4)c3)nc2s1 | inactive | –
23 | COc1ccc(-n2nc([N+](=O)[O-])c(=NCCCN3CCCC3=O)n2O)cc1 | inconclusive: 8.91 µM [inhibitor, partial curve] | –
24 | COc1ccc(CCNC(=O)C2CCN(S(C)(=O)=O)CC2)cc1 | inactive | –
25 | CC(C)CCNC(=O)CN(CC1CCCO1)C(=O)CCC(=O)Nc1ccccn1 (stereo not drawn) | inactive | –

Row | Structure (SMILES) | Potency | activity, negative = inhibition
26 | O=C1CC(N(CCc2ccccc2)C(=S)Nc2ccccc2)C(=O)N1c1ccc(Br)cc1 (stereo not drawn) | inconclusive: 2.24 µM [activator, full curve, poor fit] | –
27 | CCOC(=O)C(=N/O)/C(C)=N/NC(=O)C(=O)Nc1ccc(Cl)cc1 | inconclusive: 10 µM [inhibitor, partial curve] | –
28 | Cc1ccc2[nH]c(CSc3nnc(COc4ccccc4C)n3C)cc(=O)c2c1 | inactive | –
29 | Cc1cccc(NC(=O)c2ccc(N3CCCCC3)c([N+](=O)[O-])c2)n1 | inconclusive: 11.2 µM [inhibitor, partial curve] | –
30 | COc1cccc(CNC(=O)CN2C(=O)CSc3c2c(C)nn3-c2ccccc2)c1 | inactive | –
31 | Cc1ccc(O)c(CNc2cccc3cccnc23)c1 | inconclusive: 14.1 µM [inhibitor, partial curve] | –
32 | COCCn1c(SCc2cnc(-c3ccccc3)s2)nnc1-c1ccncc1 | inactive | –
33 | COc1ccccc1C(=O)NCc1ccccc1 | inactive | –
34 | C=CCNC(=O)CSc1ccc(Cl)cc1 | inactive | –
35 | Cc1snc(SCC(=O)c2ccc(F)cc2)c1C#N | inactive | –
36 | CC1Sc2ccc(C(=O)O)cc2NC1=O (stereo not drawn) | inactive | –
37 | O=C(COc1cccc([N+](=O)[O-])c1)N/N=C/c1ccco1 | inconclusive: 31.6 µM [inhibitor, single point] | –
38 | Cn1c(C(=O)c2ccccc2[N+](=O)[O-])nc2ccccc21 | inactive | –
39 | COc1ccc(C(=O)Nc2ccccc2C(=O)N/N=C/c2ccco2)cc1 | inactive | –
40 | CCOc1ccc2nc(N3CCCC(C(=O)Nc4cccc(Cl)c4C)C3)sc2c1 (stereo not drawn) | inconclusive: 22.4 µM [inhibitor, partial curve, poor fit] | –
41 | Cc1c(NC(=O)COC(=O)c2cc(-c3ccc(-c4ccccc4)cc3)nc3ccccc23)c(=O)n(-c2ccccc2)n1C | inactive | –
42 | Cc1ccc(-c2nc(-c3cccnc3)no2)c(C)c1 | inconclusive: 15.8 µM [inhibitor, partial curve] | –
43 | Cc1ccc(S(=O)(=O)c2nc(-c3ccco3)oc2SCC(C)C)cc1 | inconclusive: 25.1 µM [inhibitor, single point] | –
44 | C=C(C)C(=O)Nc1cccc(C2=NOC3(C2)C[C@H](C(N)=O)N(C(=O)COc2ccc(Cl)cc2)C3)c1 (stereo partly drawn) | inactive | –
45 | O=C(CCC1N=C2c3ccccc3N=C(SCc3ccc(Cl)cc3)N2C1=O)NCc1ccco1 (stereo not drawn) | inconclusive: 31.6 µM [inhibitor, partial curve] | –
46 | NC(=O)c1ccccc1OCC(=O)Nc1ccc(Cl)c(Cl)c1 | inconclusive: 5.01 µM [inhibitor, partial curve] | –
47 | COc1ccc(-c2oc(NC(=O)CCl)c(C#N)c2-c2ccc(OC)cc2)cc1 | active: 25.1 µM | –
48 | CCOC(=O)c1[nH]c2ccccc2c1NC(=S)Nc1ccccc1 | inconclusive: 25.1 µM [inhibitor, partial curve] | –
49 | CC(C)(C)c1ccc(C(=O)Nc2cccc([N+](=O)[O-])c2)cc1 | inconclusive: 7.08 µM [inhibitor, partial curve] | –
50 | CCN(CC)S(=O)(=O)c1ccc(S(=O)(=O)Nc2ccc(C(=O)N3CCCC3)cc2)cc1 | inactive | –

Row | Structure (SMILES) | Potency | activity, negative = inhibition
51 | CNc1cnn(-c2ccccc2)c(=O)c1Cl | inactive | –
52 | COc1ccccc1NS(=O)(=O)c1cc([N+](=O)[O-])ccc1N/N=C/c1c(C)[nH]c2ccccc12 | active: 3.16 µM | –
53 | COc1ccc(CNC(=O)c2cc3c(s2)-c2c(C)cccc2OC3)cc1 | inconclusive: 3.16 µM [inhibitor, partial curve, poor fit] | –
54 | COc1cc(O)c(C(CCN2CCN(c3ccccc3)CC2)c2ccc(N(C)C)cc2)c(OC)c1 (stereo not drawn) | inconclusive: 39.8 µM [inhibitor, single point] | –
55 | N#C/C(=C\c1cc2ccccc2nc1N1CCOCC1)C(=O)Nc1ccc(N2CCOCC2)cc1 | active: 14.1 µM | –
56 | CC12CC3OS(=O)OC3CC3C4C(C(OCc5ccccc5)C31)C42 (stereo not drawn) | inconclusive: 0.178 µM [inhibitor, partial curve, poor fit] | –
57 | O=C(CSc1ccc(-c2ccco2)nn1)N1CCCC1 | inconclusive: 12.6 µM [inhibitor, partial curve, poor fit] | –
58 | O=C(CSCc1ccccc1F)NCc1ccccc1 | inactive | –
59 | COc1cc(N2CCCC2)c(OC)cc1C=O | inconclusive: 35.5 µM [inhibitor, single point] | –
60 | c1ccc2sc(-c3ccc4c(c3)OCO4)nc2c1 | inconclusive: 11.2 µM [inhibitor, partial curve] | –
61 | CCC(=O)NC(=S)NNC(=O)c1ccc(OC)cc1 | inactive | –
62 | CCOc1ccc2nc(NC(=O)c3cnccn3)sc2c1 | inactive | –
63 | COc1ccc(CCNC(=O)C(C(=O)c2ccccc2)n2ccccc2=O)cc1OC (stereo not drawn) | inactive | –
64 | Clc1ccc(C2=Nn3c(Cn4nnc5ccccc54)nnc3SC2)cc1 | inconclusive: 35.5 µM [inhibitor, partial curve] | –
65 | CN(C)/C=C/C(=O)/C=C/c1ccc(Cl)cc1 | inconclusive: 28.2 µM [inhibitor, single point] | –
66 | CC(C)Cn1nc(C(=O)OCC(=O)NCC(F)(F)F)c2ccccc2c1=O | inactive | –
67 | O=C(COc1ccc(Cl)cc1Cl)N/N=C1\CCCc2ccccc21 | inconclusive: 2.24 µM [inhibitor, partial curve] | –
68 | C/C(=N\Nc1ccc(Cl)c(C(=O)O)c1)c1ccc2c(c1)OCO2 | inconclusive: 10 µM [inhibitor, partial curve] | –
69 | CCCC(=O)Nc1ccc(-c2nc3cc(C)c(C)cc3o2)c(O)c1 | inconclusive: 5.62 µM [inhibitor, partial curve] | –
70 | COc1ccccc1C1NC=C([N+](=O)[O-])C=C1[N+](=O)[O-] (stereo not drawn) | active: 11.2 µM | –
71 | COc1cc(C(=S)NCc2ccccc2)cc(Br)c1O | active: 35.5 µM | –
72 | CCC(C)Nc1nc2c(c(=O)n(C)c(=O)n2C)n1C (stereo not drawn) | inactive | –
73 | Cc1ccc(S(=O)(=O)c2cc3c(=O)n4ccccc4nc3n(Cc3ccco3)c2=N)cc1 | inconclusive: 14.1 µM [inhibitor, partial curve] | –
